According to US8163528B2, “Nucleic acid molecules encoding thymidine kinase fusion proteins” (Darwin Molecular Corporation, priority 1997, dated 2012):

Tested on: BHK tk
Assay: Sensitivity of guanylate kinase transfectant pools to ACV in TK expressing clones
Assay type: cell-based, hamster
Settings: gmk+75 D4 expressing cells
Procedure: pREP8-7, pREP8-7:hgmk and pREP8-7:mgmk are used to transfect BHK tk, TK-transfected clone C3 and 75-transfected clone D4. Histidinol is used to select pools of stable transfectants and to isolate individual clones.
As in Example 8, pools of transfectants are placed in 96 well microtiter dishes at 1000 cells/well. Eight replicates are incubated for three days in the presence of various GCV or ACV concentrations.

B1: gmk+75 D4: guanylate kinase co-expressed in 75-transfected BHK clone D4 (protein, UniProt Q64520 1-198, looked up)
Guanylate kinase: MAGPRPVVLSGPSGAGKSTLLKKLFQEHSSIFGFSVSHTTRNPRPGEEDGKDYYFVTREMMQRDIAAGDFIEHAEFSGNLYGTSKEAVRAVQAMNRICVLDVDLQGVRSIKKTDLCPIYIFVQPPSLDVLEQRLRLRNTETEESLAKRLAAARTDMESSKEPGLFDLVIINDDLDKAYATLKQALSEEIKKAQGTGHA
  sensitivity to ACV greater than that of TK expressing cells: 6-7 times
